From PubChem BioAssay AID651820 (National Center for Advancing Translational Sciences (NCATS), 2012)
About 12,000 (3.5%) of roughly 340,000 compounds were called active. The inconclusive results got no clear call from the source; some entries with a clear call stand among them for comparison. Calls come from the whole dose curve; as a rule, active = well fitted inhibition curve with a large enough effect; inconclusive = small, poorly fitted or top-dose-only effect, or another doubt; inactive = no such curve, though single readings can be large or run the other way. Potencies of inconclusive entries are left out as doubtful fits.

Assay: qHTS Assay for Inhibitors of Hepatitis C Virus (HCV)
Details: Huh7.5.1 HCVcc-Cre (HCVcc is cell-culture hepatitis C virus) infection, luciferase reporter, 44 h; series mostly up to 41.8 µM
Outline: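 Cells (1,000/well) were plated 4 h before compound, then infected with HCVcc-Cre virus (~0.5 moi). After 44 h further culture, infection was read as luciferase luminescence following a 15 min substrate incubation at room temperature.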
Potency is the fitted concentration of half-maximal effect; tags give direction and shape of the fitted curve.

Question: For `CCc1[nH]nc2c1C(c1ccc(Br)s1)C(C#N)=C(N)O2` (stereo unspecified), which Potency is on record?
Answer: inconclusive [inhibitor, single point]

Question: Which Potency does the source give for `Cc1ccc(NCCC(=O)c2ccccc2)cc1Cl` here?
Answer: inactive

Question: Which Potency does the source give for `O=C(CSc1nnc(CNC(=O)c2ccco2)o1)Nc1cccc(Cl)c1` here?
Answer: inactive

Question: Which Potency does the source give for `Cn1nccc1C(=O)N1CCCC(C(=O)c2ccc(C(F)(F)F)cc2)C1` (stereo unspecified) here?
Answer: inconclusive [inhibitor, single point]

Question: With `CN(Cc1ccccc1)C(=O)[C@H]1CCC(=O)N1Cc1ccco1` as the molecule, how does the Potency read?
Answer: inactive

Question: Which Potency does the source give for `C[C@@H]1CC=C[C@H]2[C@H]1C(=O)N(Cc1ccccc1)[C@H]2c1ccc(C(F)(F)F)cc1` here?
Answer: inconclusive [inhibitor, single point]

Question: For `c1ccc(OCCN2CCNCC2)cc1`, which Potency is on record?
Answer: inactive

Question: For `CCc1cc(-c2n[nH]c(C)c2-c2ccccc2Cl)c(O)cc1OC`, which Potency is on record?
Answer: inconclusive [inhibitor, single point]

Question: With `Cc1ccc(NS(=O)(=O)c2cccc(C(=O)N/N=C/c3c(C)nn(-c4ccccc4)c3N3CCCC3)c2)c(C)c1` as the molecule, how does the Potency read?
Answer: active: 12.6 µM

Question: Which Potency does the source give for `Fc1ccc(C(CCNCc2ccccn2)c2ccc(Cl)cc2)cc1` (stereo unspecified) here?
Answer: inconclusive [inhibitor, single point]

Question: For `CCOC(=O)c1c(NC(=O)CN(C)C2CCN(C)CC2)sc(C(=O)Nc2ccccc2)c1C`, which Potency is on record?
Answer: inconclusive [inhibitor, partial curve]

Question: With `COc1cc(C(=S)N2CCOCC2)ccc1OS(=O)(=O)c1ccc(NC(C)=O)cc1` as the molecule, how does the Potency read?
Answer: inconclusive [inhibitor, partial curve]

Question: For `COc1ccc(-c2cn[nH]c2-c2ccc(OCc3ccccc3)cc2O)cc1`, which Potency is on record?
Answer: inconclusive [inhibitor, single point]

Question: With `CC(=NNC(=S)SCc1ccccc1)c1ccccn1` as the molecule, how does the Potency read?
Answer: active: 0.316 µM

Question: Which Potency does the source give for `CCN(CCCNC(=O)CC(C(=O)N1CCc2ccccc21)n1ccnc1)c1cccc(C)c1` (stereo unspecified) here?
Answer: inactive

Question: Which Potency does the source give for `COC(=O)C1=C(C)N(Cc2ccccc2)C(=NCCc2c[nH]c3ccccc23)N[C@H]1c1cccc(F)c1` here?
Answer: inconclusive [inhibitor, single point]

Question: Which Potency does the source give for `CN1CCC(N(C)C(=O)c2ccc(Cl)c(S(=O)(=O)N3CCc4ccccc43)c2)CC1` here?
Answer: inconclusive [inhibitor, single point]

Question: Which Potency does the source give for `O=C(O)CCC(=O)Nc1ccc(-n2ccc(C(F)(F)F)n2)cc1` here?
Answer: inactive

Question: With `O=C(CCS(=O)(=O)c1ccc(Cl)cc1)Nc1nc(-c2ccncc2)cs1` as the molecule, how does the Potency read?
Answer: inconclusive [inhibitor, single point]

Question: With `COc1ccc(/C=C/c2ccc3c(Br)ccc(O)c3n2)cc1` as the molecule, how does the Potency read?
Answer: inconclusive [inhibitor, partial curve]

Question: Which Potency does the source give for `CC(C)NC(=O)CC(c1ccccc1)c1cc(Br)ccc1O` (stereo unspecified) here?
Answer: inconclusive [inhibitor, single point]

Question: With `Cc1csc(NC(=O)c2cc(C)on2)n1` as the molecule, how does the Potency read?
Answer: inactive

Question: Which Potency does the source give for `Cc1nonc1NC(=O)CSc1nc2ccccc2[nH]1` here?
Answer: inactive

Question: For `Cc1ccc(C(=O)NNC(=O)c2ccc(NC(=O)C(C)(C)C)cc2)cc1`, which Potency is on record?
Answer: inactive

Question: With `CCCn1c2ccccc2c2cnn(CC(=O)NCCCN3CCCCC3)c(=O)c21` as the molecule, how does the Potency read?
Answer: inactive

Question: Which Potency does the source give for `COc1cc(/C=N/O)cc(Br)c1OC` here?
Answer: inactive

Question: With `COc1ccc(/C=N/NC(=O)c2cc(-c3ccc(C)cc3C)nc3ccccc23)cc1COC(C)=O` as the molecule, how does the Potency read?
Answer: inconclusive [inhibitor, full curve]

Question: With `COC(=O)Cc1c(C)c2c(O)cc(C)cc2oc1=O` as the molecule, how does the Potency read?
Answer: inconclusive [inhibitor, partial curve]

Question: Which Potency does the source give for `CCCN(C(=O)C(C)Oc1cccc(Cl)c1)c1c(N)n(Cc2ccccc2)c(=O)[nH]c1=O` (stereo unspecified) here?
Answer: inactive

Question: For `O=C(CC(c1ccccc1)C1CCCCC1=O)c1ccccc1` (stereo unspecified), which Potency is on record?
Answer: inactive

Question: Which Potency does the source give for `O=C(/C=C/c1cccs1)Nc1ccc(S(=O)(=O)Nc2ncccn2)cc1` here?
Answer: inactive

Question: With `CNC(=O)c1cc(S(=O)(=O)Nc2ccc3c(c2)OCCO3)ccc1C` as the molecule, how does the Potency read?
Answer: inactive

Question: With `CC1=C(C(=O)OCC2CCCO2)C(c2ccc(C)cc2)C2=C(CCCC2=O)N1` (stereo unspecified) as the molecule, how does the Potency read?
Answer: inactive

Question: Which Potency does the source give for `Cc1cccc(COCC(CC(C)C)N2CCN(C(=O)c3ccc(C(C)(C)C)cc3)CCC2=O)c1` (stereo unspecified) here?
Answer: inconclusive [inhibitor, single point]

Question: With `C/C(=N\NC(=O)c1nc2ccccn2c1C)c1cc2ccccc2o1` as the molecule, how does the Potency read?
Answer: inconclusive [inhibitor, single point]

Question: With `Cc1ccccc1NC(=O)c1cn(-c2ccccc2)nc1-c1ccccc1` as the molecule, how does the Potency read?
Answer: inconclusive [inhibitor, partial curve]

Question: Which Potency does the source give for `O=C(COc1ccc(NC(=O)c2ccccc2[N+](=O)[O-])cc1)c1ccc(F)cc1` here?
Answer: inconclusive [inhibitor, single point]

Question: Which Potency does the source give for `CCc1ccc(C(=O)CCC(=O)Nc2cccc(S(=O)(=O)N3CCCCC3)c2)cc1` here?
Answer: active: 10 µM

Question: Which Potency does the source give for `O=C(NCCCNc1ccc(C(F)(F)F)cc1[N+](=O)[O-])c1cc(F)c(F)cc1Cl` here?
Answer: inconclusive [inhibitor, single point]

Question: Which Potency does the source give for `Clc1ccc(C2=Nc3cc(Cl)ccc3OC2)cc1` here?
Answer: inactive

Question: For `COc1ccc(CCNc2cc(C)nc3c(-c4ccccc4OC)cnn23)cc1OC`, which Potency is on record?
Answer: active: 12.6 µM

Question: For `O=C(COc1ccccc1Cl)NCc1ccco1`, which Potency is on record?
Answer: inactive

Question: With `CN(CC(=O)Nc1cccc(F)c1)C(=O)c1cc(-c2ccco2)nc2ccccc12` as the molecule, how does the Potency read?
Answer: inactive

Question: With `COc1ccccc1/C=C/C(=O)Nc1cccc(S(=O)(=O)N2CCOCC2)c1` as the molecule, how does the Potency read?
Answer: inconclusive [inhibitor, full curve]

Question: With `CCOC(=O)C1=C(C)S/C(=C\N(C)C)C1=O` as the molecule, how does the Potency read?
Answer: inactive

Question: For `CCN(CC(=O)Nc1ccccc1OC)Cc1csc(CC(=O)Nc2ccc(C)cc2)n1`, which Potency is on record?
Answer: inconclusive [inhibitor, partial curve]

Question: With `C=CCOc1ccc(C2/C(=C(/O)c3ccc4c(c3)CC(C)O4)C(=O)C(=O)N2CCCN2CCOCC2)cc1` (stereo unspecified) as the molecule, how does the Potency read?
Answer: inactive

Question: With `O=C(Nc1ccc(N2CCN(C(=O)c3ccccc3)CC2)cc1)c1cc([N+](=O)[O-])ccc1N1CCOCC1` as the molecule, how does the Potency read?
Answer: inconclusive [inhibitor, single point]

Question: With `CC(=O)NC(=S)Nc1ccc(NC(=O)COc2ccc(C(C)C)cc2)cc1` as the molecule, how does the Potency read?
Answer: inconclusive [inhibitor, partial curve, poor fit]

Question: For `COc1ccc(NC(=O)CSCC(=O)N(C)Cc2ccc(Cl)c(Cl)c2)cc1`, which Potency is on record?
Answer: inconclusive [inhibitor, single point]

Question: Which Potency does the source give for `Cc1cnc(NC(=O)c2cc3c(s2)CCCC3)s1` here?
Answer: inconclusive [inhibitor, partial curve, poor fit]

Question: For `CC(C)N(C(=O)[C@H]1C[C@H](CC(=O)NCCCn2ccnc2)C(=O)N2CCc3c([nH]c4ccc(Cl)cc34)[C@]12C)C(C)C`, which Potency is on record?
Answer: inconclusive [inhibitor, single point]

Question: With `CN1CCC(=C2c3ccccc3CCc3sccc32)CC1` as the molecule, how does the Potency read?
Answer: inconclusive [inhibitor, full curve]

Question: For `Cc1ccc(-n2nc3c(N4CCC(C(=O)NCc5ccc(C)o5)CC4)nnc(C)c3c2C)cc1`, which Potency is on record?
Answer: inconclusive [inhibitor, partial curve]

Question: For `Cc1ccc(NC(=O)Cn2nnc(C(=O)Nc3ccc(C)c(C)c3)c2N)cc1`, which Potency is on record?
Answer: inconclusive [inhibitor, partial curve]

Question: Which Potency does the source give for `CC/C(=N\Nc1nncc2ccccc12)c1ccc(F)cc1` here?
Answer: inactive

Question: Which Potency does the source give for `Cc1ccc2nc(-c3ccc(N4C(=O)CC(N5CCN(CCO)CC5)C4=O)cc3)sc2c1` (stereo unspecified) here?
Answer: inconclusive [inhibitor, partial curve, poor fit]

Question: For `Cc1cccc(C)c1NC(=O)COC(=O)c1cccc2c1C(=O)c1ccccc1C2=O`, which Potency is on record?
Answer: inconclusive [inhibitor, single point]

Question: Which Potency does the source give for `Cc1cc(C)cc(NC(=O)c2cccc(NC(=O)C3C4CC5OC(=O)C3C5C4)c2)c1` (stereo unspecified) here?
Answer: inconclusive [inhibitor, single point]

Question: With `Cc1cc(C2(c3ccc(O)c(C)c3)C(=O)Nc3ccccc32)ccc1O` as the molecule, how does the Potency read?
Answer: inactive

Question: For `CCN(CC)S(=O)(=O)c1ccc2nc(COC(=O)c3n[nH]c4ccccc34)[nH]c2c1`, which Potency is on record?
Answer: active: 12.6 µM

Question: For `Nc1ccc(Oc2ccc3nc(-c4ccccc4)c(-c4ccc([N+](=O)[O-])cc4)nc3c2)cc1`, which Potency is on record?
Answer: inconclusive [inhibitor, partial curve]

Question: With `CN(CC(=O)Nc1ccc(Cl)c(C(F)(F)F)c1)C(=O)C1(c2ccccc2)CC1` as the molecule, how does the Potency read?
Answer: inconclusive [inhibitor, single point]

Question: For `COc1cccc(-n2sc3c(c2=S)-c2cc(OC)ccc2NC3(C)C)c1`, which Potency is on record?
Answer: active: 10 µM

Question: With `CCCCCCCCCCCCCCCC(=O)OCC1OC(n2ccc(N)nc2=O)C(O)C1O` (stereo unspecified) as the molecule, how does the Potency read?
Answer: inconclusive [inhibitor, partial curve, poor fit]

Question: Which Potency does the source give for `CCOc1ccc(NC(=O)CN(c2cccc(C(F)(F)F)c2)S(C)(=O)=O)cc1` here?
Answer: inconclusive [inhibitor, single point]

Question: Which Potency does the source give for `O=C(Cc1ccccc1)NNC(=S)NC(=O)c1cccnc1` here?
Answer: inactive

Question: With `CCOC(=O)C1CCCN(C(=O)COc2ccc(C(=O)c3ccc(F)cc3)cc2)C1` (stereo unspecified) as the molecule, how does the Potency read?
Answer: active: 12.6 µM

Question: With `CCCCNC(=O)c1cc(S(=O)(=O)N2CCCCC2)oc1C` as the molecule, how does the Potency read?
Answer: inconclusive [inhibitor, single point]

Question: Which Potency does the source give for `Cc1nn(CCC(N)=O)c2nc(-c3cccs3)cc(C(F)(F)F)c12` here?
Answer: active: 10 µM

Question: For `CCN(C(=O)CSc1nc2cc(C(F)(F)F)ccc2n1Cc1ccccc1)C1CCS(=O)(=O)C1` (stereo unspecified), which Potency is on record?
Answer: inconclusive [inhibitor, single point]
